Results reported in PubChem BioAssay AID1030 (National Center for Advancing Translational Sciences (NCATS), 2008).
Hit rate of the full screen: of about 220,000 compounds, about 16,000 (7.3%) were called active. The inconclusive results got no clear call from the source; some entries with a clear call stand among them for comparison. Calls follow the shape of the dose curve; as a rule, active = well fitted inhibition curve with a large enough effect (not every such curve was filed as active); inconclusive = small, poorly fitted or top-dose-only effect, or another doubt; inactive = no such curve, though single readings can be large or run the other way. Potencies of inconclusive entries are left out as doubtful fits. Some structures have more than one record in an assay (separate samples or runs), and their calls can disagree.

biological target: Aldehyde dehydrogenase 1A1 (Homo sapiens) (UniProt P00352); test: qHTS Assay for Inhibitors of Aldehyde Dehydrogenase 1 (ALDH1A1); details: Purified ALDH1A1, NADH fluorescence, propionaldehyde substrate; series mostly up to 75.3 µM; activity, negative = inhibition: at the top concentration;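 as to activity, negative = inhibition: plate controls were no enzyme wells and a reference inhibitor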
Chain of UniProt P00352 (P00352 whole entry, looked up): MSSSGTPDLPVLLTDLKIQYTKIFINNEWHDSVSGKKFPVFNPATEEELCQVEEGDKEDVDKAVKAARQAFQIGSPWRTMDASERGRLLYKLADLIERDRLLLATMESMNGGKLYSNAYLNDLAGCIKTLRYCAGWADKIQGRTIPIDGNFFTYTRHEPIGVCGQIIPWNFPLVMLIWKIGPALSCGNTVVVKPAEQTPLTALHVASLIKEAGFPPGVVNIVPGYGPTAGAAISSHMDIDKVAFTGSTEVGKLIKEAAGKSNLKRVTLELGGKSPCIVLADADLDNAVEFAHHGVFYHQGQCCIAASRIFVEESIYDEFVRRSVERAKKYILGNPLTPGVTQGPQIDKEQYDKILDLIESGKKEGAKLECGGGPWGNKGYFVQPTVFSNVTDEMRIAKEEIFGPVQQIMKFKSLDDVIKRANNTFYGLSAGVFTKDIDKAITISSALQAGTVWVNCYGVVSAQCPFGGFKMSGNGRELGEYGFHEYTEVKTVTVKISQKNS
Potency is read from the fitted curve at half-maximal effect; tags tell the direction and shape of the fitted curve.

| SMILES | activity, negative = inhibition | Potency |
| --- | --- | --- |
| CC(CC(C)C(=O)Nc1ccccc1C(C)(C)C)C(=O)O (stereo not given) | inactive: 23.9% |  |
| COc1ccccc1Nc1nc(-c2sc(NC(=O)c3ccccc3)nc2C)cs1 |  | active: 12.6 µM |
| CC(C)C(O)(C#CCN1CCCCCC1)c1ccccc1 (stereo not given) |  | inconclusive [inhibitor, single point] |
| CN(C)c1ccc(C(=S)N2CCCCC2)cc1 |  | inconclusive [inhibitor, single point] |
| O=C(NCc1ccco1)C(Cc1ccccc1)N1C(=O)C2C3C=CC(C3)C2C1=O (stereo not given) |  | inconclusive [inhibitor, single point] |
| O=C(CNC(=S)N(Cc1ccccc1)Cc1cccnc1)N1CCOCC1 | inactive: -3.21% |  |
| COC(=O)COc1ccc(/C=C2/NC(=O)N(CC(=O)OC)C2=O)cc1 |  | inconclusive [inhibitor, partial curve] |
| CCN(CC)c1ccc(S(=O)(=O)N(CC)CC)cc1NC(=O)C1CCCC1 | inactive: 2.3% |  |
| CC(C)c1ccc(NC(=S)Nc2ccc3cn[nH]c3c2)cc1 |  | active: 18.9 µM |
| COc1ccc(-c2nnc(Nc3ccc(OC)c(C(=O)N4CCCCC4)c3)c3ccccc23)cc1 |  | inconclusive [inhibitor, single point] |
| COc1cc(-c2nn3c(COc4ccccc4)nnc3s2)cc(OC)c1OC |  | inconclusive [inhibitor, partial curve] |
| CCOC(=O)C1=C(CSc2nc3c(cc2C#N)CN(C)CC3)OC(N)=C(C#N)C1c1ccncc1 (stereo not given) |  | inconclusive [inhibitor, single point] |
| Cc1ccc(C(=O)C2CCN(CC(=O)Nc3ccc(N(C)C)cc3)CC2)cc1 |  | inconclusive [inhibitor, single point] |
| O=C(CNC(=O)c1ccccc1O)N/N=C/c1cc(Br)ccc1OC(=O)/C=C/c1ccco1 |  | inconclusive [inhibitor, single point] |
| CCOC(=O)C1CCCN(c2oc(-c3ccc(OC)cc3)nc2C#N)C1 (stereo not given) |  | inconclusive [inhibitor, partial curve] |
| Cc1nnc(SCC(=O)c2c(N)n(C)c(=O)n(C)c2=O)n1Cc1ccccc1 | inactive: 3.04% |  |
| COc1ccc(/C=N/NC(=O)CCSc2nc3ccccc3s2)cc1OC |  | inconclusive [inhibitor, single point] |
| CCOC(=O)CNC(=O)c1cnn2cccnc12 |  | inconclusive [inhibitor, partial curve] |
| CC(/C=N/Nc1nc2ccccc2[nH]1)=C\c1ccccc1 | inactive: 5.11% |  |
| O=C(Cn1nc(-c2cccc(Cl)c2)ccc1=O)Nc1ccc(C(=O)NC2CC2)cc1 | inactive: 2.96% |  |
| COc1ccc(-c2nc3cnc(N4CCOCC4)nc3n(Cc3cccs3)c2=O)cc1 |  | inconclusive [inhibitor, full curve] |
| CCN(CC)c1ccc(/C=N/N2CCN(c3ccccn3)CC2)cc1 |  | active: 22.4 µM |
| Cc1cccc(CN2C(=O)CCSc3ccc(Cl)cc32)c1 |  | active: 14.1 µM |
| CC1(C)CC(N=Cc2c(O)n(Cc3ccc4c(c3)OCO4)c(=O)c3ccccc23)CC(C)(C)N1 | inactive: 12.1% |  |
| Clc1ccc2[nH]c3c(NCCCN4CCOCC4)ncnc3c2c1 |  | inconclusive [inhibitor, single point] |

| SMILES | activity, negative = inhibition | Potency |
| --- | --- | --- |
| CCOC(=O)N/N=C1/C[C@@H](O)[C@@H](O)[C@@H]2[C@@H]3C(=O)N(C4CCCCC4)C(=O)[C@H]3CC[C@@H]12 | inactive: 11.6% [at 13.5 µM] |  |
| O=C(Nc1ccc2c(c1)OCCO2)c1cc2sccc2n1Cc1ccccc1 |  | inconclusive [inhibitor, single point] |
| CCCc1nnc(NC(=O)CCC(=O)O)s1 |  | inconclusive [inhibitor, single point] |
| CCn1c(=O)c(C(=O)NC(C)C)c(O)c2ccccc21 |  | active: 12.6 µM |
| CCOc1ccc(-c2n[nH]c(C(=O)NN)c2C)cc1 |  | inconclusive [inhibitor, single point] |
| CCCC1(C)NC(=O)c2ccccc2O1 (stereo not given) | inactive: 6.19% |  |
| O=C(CSc1nnc(-c2cccs2)o1)c1cccs1 |  | inconclusive [inhibitor, partial curve] |
| CCN1C(=O)/C(=C2/C=Cc3cc(C)ccc3N2CC)N(C)C1=S |  | inconclusive [inhibitor, single point] |
| N#C/C(C(=O)NCc1ccco1)=C1/SC(Cc2ccc(Cl)cc2)C(=O)N1c1ccccc1 (stereo not given) |  | inconclusive [inhibitor, single point] |
| Cc1nc2ccc(-c3nc4ccc(N)cc4[nH]3)cc2[nH]1 |  | inconclusive [inhibitor, partial curve] |
| CC(=O)c1c(N2CCCCC2)nc(=S)n(Cc2ccccc2)c1C |  | inconclusive [inhibitor, single point] |
| COc1ccc(NCc2ccc3c(c2)OCO3)cc1Cl |  | inconclusive [inhibitor, single point] |
| COc1cc(N=Nc2cccc(S(N)(=O)=O)c2)c2ccccc2c1N | inactive: -15.1% [at 13.5 µM] | active: 7.94 µM |
| CCn1c(CNC(=O)c2ccco2)nnc1SCC(=O)c1ccc(OC)cc1 |  | inconclusive [inhibitor, single point] |
| COCCN(C(=O)CNC(=O)c1cccs1)C(C(=O)NC1CCCCC1)c1ccco1 (stereo not given) | inactive: -9.72% |  |
| S=c1nc(-c2cc(Cl)ccc2Cl)[nH][nH]1 |  | active: 6.31 µM |
| C=CCOC(=O)C1=C[C@H](c2coc3ccccc3c2=O)C[C@H](OCc2ccc(CO)cc2)O1 |  | inconclusive [inhibitor, single point] |
| COc1cccc(OC)c1C(=O)Nc1ccc2c3c(cccc13)CC2 |  | inconclusive [inhibitor, single point] |
| CC1(C)Oc2ccc3ccc(=O)oc3c2/C(=C/NCCO)C1=O |  | active: 25.1 µM |
| Cc1oc(/N=C/c2ccccc2O)c(C#N)c1C |  | inconclusive [inhibitor, single point] |
| Cc1ccc(/C=C/C(=O)Nc2nccs2)o1 |  | inconclusive [inhibitor, single point] |
| CC(C(=O)Nc1sc2c(c1C(=O)NCc1ccco1)CCCC2)N1C(=O)c2ccccc2C1=O (stereo not given) | inactive: -5.08% |  |
| N#Cc1cc2ccccc2nc1SCC(=O)Nc1ccc(S(=O)(=O)N2CCCC2)cc1 |  | active: 10 µM |
| CCOc1cc(/C=N/N=C2/NC(=O)C(CC(=O)O)S2)ccc1OCc1ccccc1Cl (stereo not given) | inactive: 0.742% |  |
| CN(Cc1ccc(-n2cccn2)cc1)C(=O)c1cnn2c1NC(c1ccco1)CC2C(F)(F)F (stereo not given) |  | active: 7.94 µM |

| SMILES | activity, negative = inhibition | Potency |
| --- | --- | --- |
| O=[N+]([O-])c1cc(/C=N/N/C(=N/c2ccccn2)c2ccccn2)ccc1O | inactive: -4.7% |  |
| Nc1nc(CSc2n[nH]c(-c3ccccc3)n2)nc(Nc2ccccc2)n1 |  | inconclusive [inhibitor, single point] |
| Cc1cc(N2CCN(C)CC2)nc2ccc(NC(=S)NCCCN3CCN(C)CC3)cc12 | inactive: 12.4% |  |
| COc1ccc(-c2nc(-c3cccs3)c(-c3cccs3)[nH]2)cc1O |  | inconclusive [inhibitor, single point] |
| O=C(COc1ccccc1)Nc1nc2ccccc2[nH]1 |  | inconclusive [inhibitor, single point] |
| O=S(=O)(Nc1ccc(N2CCCCC2)cc1)c1cccs1 | inactive: -2.04% |  |
| O=C1c2ccccc2C(=O)N1CN(C(=O)COc1ccccc1)c1ccccc1 |  | inconclusive [inhibitor, single point] |
| COCCn1cnnc1SCC(=O)Nc1sccc1C(N)=O | inactive: 3.03% |  |
| COc1ccc(OC)c(-n2c(-c3cc(-c4ccco4)[nH]n3)n[nH]c2=S)c1 | inactive: 3.11% |  |
| Cc1c(NS(=O)(=O)c2ccc3c(c2)OCCO3)cccc1-c1nc2cccnc2s1 |  | active: 15.8 µM |
| CCOC(=O)C1C(=O)C=C(c2ccc(OC)cc2)CC1c1ccco1 (stereo not given) |  | inconclusive [inhibitor, partial curve] |
| Cc1nc2cc(C(=O)O)ccc2n1C1CCCCC1 | inactive: 11.2% |  |
| CCOc1ccccc1NC(=O)CSc1nnc(-c2ccco2)n1Cc1ccco1 |  | inconclusive [inhibitor, single point] |
| O=C(CCN1Cc2ccccc2C1)c1ccc2c(c1)OCCO2 |  | active: 1.26 µM |
| COc1ccccc1/C=C1/SC(=O)N(CCC(=O)Nc2ccc(S(=O)(=O)Nc3nccs3)cc2)C1=O |  | active: 25.1 µM |
| N#CCCN1CCN(C2=NC(=O)/C(=C\c3cccs3)S2)CC1 |  | active: 25.1 µM |
| Cc1ccc2c(c1)/C(=C/c1ccco1)C(=O)N2 |  | inconclusive [inhibitor, single point] |
| CCC(=O)N(CCc1ccccc1C)Cc1cc2cc3c(cc2[nH]c1=O)OCO3 |  | inconclusive [inhibitor, full curve] |
| CC1Cc2ccccc2N1C(=O)Cn1c(=O)oc2cc(S(=O)(=O)NC3CCCC3)ccc21 (stereo not given) | inactive: 7.74% |  |
| Cc1ccc(N(CN2C(=O)C3CC=CCC3C2=O)C(=O)c2ccco2)cc1Cl (stereo not given) |  | inconclusive [inhibitor, single point] |
| c1nc(N2CCOCC2)c2cc(-c3ccoc3)ccc2n1 |  | active: 22.4 µM |
| CC(C)(C)C(=O)N1CCN(c2ccc([N+](=O)[O-])c(NCC3CCCO3)c2)CC1 (stereo not given) |  | inconclusive [inhibitor, single point] |
| Cc1ccccc1-c1nc(CN2CCC(C(=O)O)CC2)c(C)o1 | inactive: 20.2% |  |
| O=C(NNC(=O)c1oc2ccccc2c1-n1cccc1)c1ccco1 |  | inconclusive [inhibitor, partial curve] |
